The source of these data is PubChem BioAssay AID1159614 (National Center for Advancing Translational Sciences (NCATS), 2016).

The campaign covered roughly 45,000 compounds. About 65 (0.1%) were called active. Calls come from the whole dose curve; as a rule, active = well fitted activation curve with a large enough effect; inconclusive = small, poorly fitted or top-dose-only effect; inactive = no such curve, though single readings can be large or run the other way. Some of the results follow.

The test addresses Galactocerebrosidase (Homo sapiens) (UniProt P54803). In words: A Novel Cell-Based Assay to Identify Small Molecules for B -Galactocerebrosidase. Note: 0% is about no effect; nearly all actives have a fitted effect of over 65% in size. Conditions: 145M-Twi-hGALC-G270D cells (Twitcher mouse brain line with human GALC G270D), HMU-beta-Gal fluorescence, 48 h; series mostly up to 57.5 µM; activation: at the top concentration. A digest of the protocol: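 Fluorescence readout: HMU-β-gal cleavage by mutant GALC (0.1 mM final, citrate/phosphate pH 5.2 with 1 mg/mL taurocholate), stopped with carbonate/bicarbonate plus Triton X-100. Cells: murine Twitcher 145M-Twi expressing human G270D GALC; qHTS for activators.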
UniProt P54803, sequence (P54803 whole entry, looked up): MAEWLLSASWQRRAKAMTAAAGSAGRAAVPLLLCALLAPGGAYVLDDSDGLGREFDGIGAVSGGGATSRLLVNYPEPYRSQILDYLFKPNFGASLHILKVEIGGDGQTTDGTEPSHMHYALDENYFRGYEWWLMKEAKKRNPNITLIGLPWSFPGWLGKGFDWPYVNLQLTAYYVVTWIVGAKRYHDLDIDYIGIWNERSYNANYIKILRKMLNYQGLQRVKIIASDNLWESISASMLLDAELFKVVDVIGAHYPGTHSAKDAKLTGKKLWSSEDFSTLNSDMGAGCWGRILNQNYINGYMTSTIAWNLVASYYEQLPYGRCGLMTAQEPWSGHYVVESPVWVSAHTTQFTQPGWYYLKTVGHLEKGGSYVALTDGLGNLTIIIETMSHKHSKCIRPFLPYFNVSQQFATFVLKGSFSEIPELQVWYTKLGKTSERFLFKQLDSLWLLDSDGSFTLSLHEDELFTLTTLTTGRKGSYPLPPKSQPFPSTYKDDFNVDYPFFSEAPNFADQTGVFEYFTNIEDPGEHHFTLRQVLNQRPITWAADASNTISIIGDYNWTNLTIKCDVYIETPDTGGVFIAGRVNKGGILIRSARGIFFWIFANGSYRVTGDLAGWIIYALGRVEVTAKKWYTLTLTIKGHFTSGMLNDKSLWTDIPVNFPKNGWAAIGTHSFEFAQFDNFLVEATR
`Cc1ccc(-n2c(/C=C/c3c(C)n(C)c4ccccc34)nc3ccccc3c2=O)cc1`: the “activation” value is inactive: -12.1%.

Regarding `O=c1[nH]c(SCc2c(F)cccc2Cl)nc2c1CCC2`, the “activation” value is inactive: -4.46%.

Regarding `Cc1cccc(-n2c(C)cc(C(=O)C(=O)Nc3ccccc3F)c2C)c1C`, the “activation” value is inactive: -4.72%.

Take `CCCN1CCN(CCCNC(=O)c2cc3c(=O)n(CC)c4ccccc4c3s2)CC1`: the “activation” value is inactive: 5.15%.

Consider `CCCCN(CCCNC(=O)c1cc(Nc2cccc(SC)c2)nc2ccccc12)Cc1ccccc1`, for which the “activation” value is inactive: -7.85%.

Regarding `CCOc1cccc(C(=O)Nc2ccc(-c3nc4ncccc4o3)cc2C)c1`, the “activation” value was inactive: -9.39%.

With `Cc1ccc(NC(=O)c2cc(S(=O)(=O)N3CCC4(CC3)OCCO4)ccc2F)cc1Cl`, the “activation” value was inactive: -11.9%.

With `COC(=O)c1c(NC(C)=O)c2c3c(sc2n1Cc1cc(C)ccc1C)CCCC3`, the “activation” value is inactive: 9.41%.

Consider `CCOC(=O)c1ccccc1NC(=O)c1sc2nc3n(c(=O)c2c1C)CCCCC3`, for which the “activation” value was inactive: -6.73%.

For `CN(C)S(=O)(=O)N(CC(=O)NCCSCc1c(F)cccc1Cl)c1ccccc1`, the “activation” value is inactive: -18.4%.

Regarding `COc1cccc(NC(=O)c2cccc3c(=O)c4c([nH]c23)CCCC4)c1`, the “activation” value was inactive: -16.3%.

With `CCCOc1ccc(C2c3c(-c4ccccc4O)n[nH]c3C(=O)N2CCc2ccccc2)cc1OCC` (configuration not stated), the “activation” value was inactive: -17.4%.

On to `Cc1cccc(C(=O)Nc2nnc(S(=O)(=O)N(C)Cc3ccccc3)s2)c1`, for which the “activation” value was inactive: -15.8%.

Regarding `Cc1ccc(S(=O)(=O)CC(=O)Nc2nc3c(C)cc(C)cc3s2)cc1`, the “activation” value is inactive: -15.1%.

Consider `COc1ccc(C(=O)c2oc3ccccc3c2NC(=O)c2cc(=O)c3ccc(C)cc3o2)cc1Cl`, for which the “activation” value is inactive: 3.7%.

As for `COc1ccc(-c2noc(CNC(=O)c3ccccc3Br)n2)cc1`, the “activation” value was inactive: -14.9%.

Turning to `CCOc1ccc(-c2cccc(NS(=O)(=O)c3ccc(F)cc3F)c2)nn1`, the “activation” value is inactive: -7.56%.

Turning to `Cc1ccc(S(=O)(=O)NCC(c2ccco2)N2CCOCC2)cc1` (configuration not stated), the “activation” value is inactive: -13.2%.

Turning to `COc1ccc(-c2nc3c(c(SCC(=O)N4CCCCC4)n2)Cc2cc(C)ccc2O3)cc1`, the “activation” value is inactive: -9.45%.

Take `O=S(=O)(c1cccc(Cl)c1)c1nnn2c1nc(NCc1ccc3c(c1)OCO3)c1sccc12`: the “activation” value was inactive: -6.44%.

`CCOc1ccc2ncc3c(-c4ccc(C)cc4)nn(-c4cccc(F)c4)c3c2c1`: the “activation” value was inactive: -8.12%.

With `CCOc1ccc(OCC)c(NC(=O)c2cc(S(=O)(=O)N3CCc4ccccc43)cn2C)c1`, the “activation” value is inactive: -5.43%.

Regarding `CCc1nnc(NC(=O)c2cc(=O)c3cc(C)ccc3o2)s1`, the “activation” value was inactive: -21.5%.

Turning to `COc1ccccc1CNC(=O)C(=O)NCC(c1cccs1)S(=O)(=O)c1ccccc1` (configuration not stated), the “activation” value is inactive: 11.8%.

For the compound `CC(=O)c1ccc(N2CCN(S(=O)(=O)c3cc4[nH]c(=O)c(=O)[nH]c4cc3C)CC2)cc1`, the “activation” value is inactive: -8.36%.

In the case of `O=C(O)c1ccccc1S`, the “activation” value was inactive: -18.2%.

Consider `Cc1ccc(C)c(N2CCN(C(=O)Cn3cnc4onc(-c5ccc(F)cc5)c4c3=O)CC2)c1`, for which the “activation” value is inactive: -26%.
